Measurements published in PubChem BioAssay AID686979 (National Center for Advancing Translational Sciences (NCATS), 2013).
The campaign covered roughly 420,000 compounds. About 50,000 (12%) were called active. This list was built around the results that the source calls inconclusive (neither active nor inactive); the mix of calls is not that of the screen. Calls come from the whole dose curve; as a rule, active = well fitted inhibition curve with a large enough effect; inconclusive = small, poorly fitted or top-dose-only effect; inactive = flat fitted curve, though single readings scatter. No potency is given beside an inconclusive call; the fits are too rough.

experiment: qHTS for Inhibitors of human tyrosyl-DNA phosphodiesterase 1 (TDP1): qHTS in cells in presence of CPT; conditions: chicken DT40 Tdp1-/-;hTDP1 cells + 20 nM CPT, ATP luminescence, 48 h; activity change, negative = growth inhibition: at 46.2 µM (top of the series) unless noted; note: nearly all actives have a fitted effect of over 55% in size
How it was run: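 Chicken DT40 Tdp1-/- cells stably complemented with human TDP1 were seeded at 400 cells/well in medium containing 20 nM camptothecin, exposed to pin-transferred compounds, and grown at 37 °C for at least 48 hr. Viability was read as ATP luminescence.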
% is set by controls: 0 for no effect and ±100 for the full control effect; potency is the fitted concentration of half-maximal effect; tags give direction and shape of the fitted curve.

| Structure (SMILES) | Potency | activity change, negative = growth inhibition |
| --- | --- | --- |
| CC(=O)NC(CC(=O)NNC(=O)c1cc2ccccc2cc1O)c1ccccc1 (stereo not given) | inconclusive [inhibitor, single point] | – |
| CC(C)CC1CC(C)(c2csc(NNC(=O)c3ccccc3)n2)OC1=O (stereo not given) | inconclusive [inhibitor, single point] | – |
| COc1ccccc1OCCNc1nc2c(c(=O)n(C)c(=O)n2C)n1C | active: 29.1 µM | – |
| Fc1ccccc1/C=N/n1c(-c2cccnc2)n[nH]c1=S | – | inactive: 5.67% |
| COc1cc(OC)c(NC(=O)C(c2ccccc2)N2Cc3ccccc3C2=O)cc1Cl (stereo not given) | inconclusive [inhibitor, single point] | – |
| C[C@H](O)[C@@H]1CN2CCc3c([nH]c4ccccc34)[C@@H]2C[C@@H]1N(C)C(=S)Nc1ccc(C#N)cc1 | inconclusive [inhibitor, single point] | – |
| CCOCCCNC(=O)c1ccc2c(c1)ncn2-c1cccc(C)c1 | inconclusive [inhibitor, single point] | – |
| O=C(COc1ccccc1)Nc1ccc(-c2ccc(N3CCOCC3)nn2)cc1 | inconclusive [inhibitor, single point] | – |
| Cc1ccc(OCC(=O)Nc2ccc(-c3nc4ncccc4o3)cc2)c(C)c1 | inconclusive [inhibitor, single point] | – |
| OC(CSc1ccccc1)CN1CCN(c2ccc(Cl)cc2)CC1 (stereo not given) | inconclusive [inhibitor, single point] | – |
| Cc1nc(NC(=O)CSC2=NCCS2)sc1C(=O)N(C)C | inconclusive [inhibitor, single point] | – |
| COc1cccc(N(C(=O)c2snc(C(N)=O)c2N)C(C(=O)NCC2CCCO2)c2c[nH]c3ccccc23)c1 (stereo not given) | inconclusive [inhibitor, partial curve] | – |
| O=C(C1CCN(C2CC(=O)N(c3ccc(F)cc3)C2=O)CC1)N1CCOCC1 (stereo not given) | inconclusive [inhibitor, single point] | – |
| COc1cccc(-c2nn(-c3ccccc3)cc2CO)c1 | – | inactive: -1.6% |
| COc1ccc(C2C(C(=O)O)c3ccccc3C(=O)N2C)cc1Br (stereo not given) | – | inactive: 2.11% |
| c1csc(-c2nnc(N3CCOCC3)c3ccccc23)c1 | – | inactive: 5.67% |
| O=C(Nc1ccc(-c2nnc(-c3ccccc3)o2)cc1)C1CCCO1 (stereo not given) | inconclusive [inhibitor, single point] | – |
| CCS(=O)(=O)N1CC(=O)N(c2ccc(Cl)cc2C)C(C)(C(=O)NC2CCCCCC2)C1 (stereo not given) | inconclusive [inhibitor, single point] | – |
| CCCCCC(=O)N1C[C@@H](n2cc(C3CC3)nn2)[C@H](O)C[C@@H]1c1ccc(Cl)cc1 | active: 16.4 µM | – |
| Cc1c(NC(=S)NNC(=O)CCC(=O)O)c(=O)n(-c2ccccc2)n1C | – | inactive: 8.72% |
| O=C(CSc1ccsc1[N+](=O)[O-])Nc1cc(F)ccc1F | – | inactive: -3.63% |
| COCCNc1nc(NCCNC(C)=O)c2sc(-c3ccccc3)cc2n1 | inconclusive [inhibitor, single point] | – |
| CCc1nnc(SCc2cccc(F)c2)c2cc3sc(C)cc3n12 | inconclusive [inhibitor, single point] | – |

| Structure (SMILES) | Potency | activity change, negative = growth inhibition |
| --- | --- | --- |
| COc1ccc(CCN(C)C2CCCN(S(=O)(=O)c3ccc(C)cc3)C2)cc1OC (stereo not given) | inconclusive [inhibitor, single point] | – |
| COc1ccc(NC(=O)CNc2ccccc2C(C)=O)cc1S(=O)(=O)N1CCOCC1 | inconclusive [inhibitor, single point] | – |
| CCOc1ccc(N2CC(c3nc4ccccc4n3CCCOc3ccccc3OC)CC2=O)cc1 (stereo not given) | inconclusive [inhibitor, single point] | – |
| COc1ccc(CCNC(=O)C2(c3cccs3)CCOCC2)cc1 | – | inactive: -25.1% |
| CCN(CC)c1ccc(-n2c(C)c(C(C)=O)c(C(C)=O)c2C)cc1 | active: 23.1 µM | – |
| O=C(Nc1nonc1-c1ccc(Cl)cc1)c1ccccc1F | inconclusive [inhibitor, single point] | – |
| CCOC(=O)c1c(NC(=O)COc2ccccc2F)sc2c1CC(C)(C)NC2(C)C | active: 9.2 µM | – |
| Cn1c(C(=O)N2CCCc3ccccc32)cc2sccc21 | – | inactive: -14% |
| CN(Cc1cnc2ccccn12)C1CCN(c2cccc(NC(=O)c3cccnc3)c2)CC1 | – | inactive: 5.12% [at 9.04 µM] |
| Cc1cccn2c(=O)c3cc(C#N)c(=NC(=O)c4ccco4)n(Cc4ccco4)c3nc12 | – | inactive: -7.25% |
| CN(c1ccccc1)S(=O)(=O)c1cccc(NS(=O)(=O)c2ccc(/C=C/C(=O)O)cc2)c1 | – | inactive: 0.26% |
| COc1ccccc1C1CC(c2ccc(Cl)cc2)Nc2nc(N)nn21 (stereo not given) | active: 10.3 µM | – |
| CC(C)CN(CCCNC(=O)c1cc(-c2ccc(Br)s2)nc2ccccc12)CC(C)C | inconclusive [inhibitor, single point] | – |
| CCOC(=O)c1scc(-c2ccccc2)c1S(=O)(=O)Nc1ccc(N(C)C)cc1 | inconclusive [inhibitor, single point] | – |
| Cc1cc(C)c(S(=O)(=O)c2ccccc2C)c(OCC(C)(C)C)n1 | active: 10.3 µM | – |
| Cc1sc2nc(SCC(=O)NCCCO)n(-c3ccccc3)c(=O)c2c1C | – | inconclusive: 0.973% [inhibitor] |
| CC(C)Cn1c(N)c(C(=O)CSc2ccc3c(c2)OCCO3)c(=O)n(C)c1=O | active: 4.11 µM | – |
| CCOC(=O)c1c(C)[nH]c(C(=O)N(C)Cc2cccc(OC)c2OC)c1C | inconclusive [inhibitor, single point] | – |
| O=C(Nc1ccc(F)cc1)Nc1cc(S(=O)(=O)N2CCOCC2)ccc1N1CCCC1 | – | inactive: 10% |
| Cc1cccc(NC(=O)CSc2nnc(-c3ccco3)c(-c3ccco3)n2)c1 | inconclusive [inhibitor, single point] | – |
| COc1ccc(-n2c(-c3ccc(C)cc3)n[nH]c2=S)cc1 | inconclusive [inhibitor, single point] | – |
| Cc1ccc(Nc2c(-c3ccccc3O)nc3ncccn23)cc1 | inconclusive [inhibitor, single point] | – |
